{
  "source": "PubChem BioAssay AID1671194",
  "about": "(National Center for Advancing Translational Sciences (NCATS), 2021)",
  "note": "Out of some 140,000 compounds screened, about 240 (0.17%) were called active. Inconclusive means that the source gave no clear call. Such entries were picked first, then a sample of the others. The call rests on the fitted dose curve; in most records, active means well fitted inhibition curve with a large enough effect; inconclusive means small, poorly fitted or top-dose-only effect; inactive means no such curve, though single readings can be large or run the other way. A potency beside an inconclusive call is a rough fit, not a confirmed value. Potency means the concentration at half of the fitted maximal effect; tags describe the fitted curve by direction and shape.",
  "data": [
    {"assay": "Primary qHTS assay for inhibitors of alpha-synuclein gene (SNCA) expression; further: nearly all actives have a fitted effect of over 45% in size;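 on activity change, negative = inhibition: plate controls were DMSO cells for no effect and cell-free wells for full effect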", "details": "HEK-293 SNCA-luciferase knock-in, luminescence, 24 h; activity change, negative = inhibition: at 57.2 µM (top of the series) unless noted", "values": [
      {"smiles": "CC(C)(O)Cn1c(NC(=O)c2ccc(-c3cn[nH]c3)s2)nc2cc(CN3CCOCC3)ccc21", "Potency": "active: 3.41 µM"},
      {"smiles": "CCOc1ccc(S(=O)(=O)Nc2cccc(-c3ccc(OCC)nn3)c2)cc1", "Potency": "inconclusive: 3.98 µM [inhibitor, full curve, poor fit]"},
      {"smiles": "O=C(Cc1cccc(Cl)c1)N1CCN(c2nccc(Nc3ccccc3Cl)n2)CC1", "activity change, negative = inhibition": "inactive: -3.04%"},
      {"smiles": "Cc1cc(OCCN2CCOCC2)c(C)c2c1CC[C@@H]([C@H](C)C(=O)N1CCOCC1)C2", "Potency": "inconclusive: 25.1 µM [inhibitor, single point]"},
      {"smiles": "FC(F)(F)c1cccc(Nc2ncc(-c3cccnc3)c3c2OCC3)c1", "activity change, negative = inhibition": "inactive: -11.7% [at 87.6 µM]"},
      {"smiles": "O=C(NCCO)c1ccc(-c2ncc3cnc(C4=CCOCC4)cn23)cc1", "activity change, negative = inhibition": "inactive: 5.68% [at 87.6 µM]"},
      {"smiles": "COc1ccccc1NC(=O)C1=C(C)Nc2nnnn2C1c1ccc(C(F)(F)F)cc1", "note": "(configuration not stated)", "Potency": "inconclusive: 2.24 µM [inhibitor, single point]"},
      {"smiles": "COC(=O)c1ccc(NC(=O)c2nc(-c3ccc(Cl)cc3)n3c2CCCCC3)cc1", "activity change, negative = inhibition": "inactive: 0.573%"},
      {"smiles": "O=C(Nc1ccccc1F)c1ccc2c(Cl)c3c(nc2c1)CCC3", "Potency": "inconclusive: 7.08 µM [inhibitor, full curve, poor fit]"},
      {"smiles": "CSc1ccc(-c2cccc(C(=O)NCCN[S+](=O)([O-])c3ccc(C)cc3)c2)cc1", "Potency": "inconclusive: 39.8 µM [inhibitor, single point]"},
      {"smiles": "CC(C)c1ccc(C(C)NC(=O)CN2CCCc3nc(-c4ccccc4)ncc3C2=O)cc1", "note": "(configuration not stated)", "Potency": "inconclusive: 39.8 µM [inhibitor, single point]"},
      {"smiles": "CCOc1ccccc1CNCc1cccn1-c1nnc(N2CCN(c3ccccc3)CC2)s1", "Potency": "inconclusive: 39.8 µM [inhibitor, single point]"},
      {"smiles": "CCCOC(=O)c1c(NC(=O)C(C)Sc2nc(-c3ccccc3)cc(C(F)(F)F)n2)sc(C(=O)N(C)C)c1C", "note": "(configuration not stated)", "Potency": "inconclusive: 39.8 µM [inhibitor, partial curve, poor fit]"},
      {"smiles": "Cc1ccc(-c2noc([C@@H]3Cc4nc[nH]c4CN3Cc3ccccc3)n2)cc1", "Potency": "inconclusive: 2.24 µM [inhibitor, full curve, poor fit]"},
      {"smiles": "COc1cc(NC(=O)N2c3ccccc3Sc3ccccc32)cc(OC)c1", "Potency": "inconclusive: 4.47 µM [inhibitor, full curve]"},
      {"smiles": "Cc1csc(NC(=O)c2sc3nc4c(c(C(F)(F)F)c3c2N)CCC4)n1", "Potency": "inconclusive: 0.171 µM [inhibitor, full curve]"},
      {"smiles": "O=C(CSc1nc2c([nH]c3ccccc32)c(=O)n1-c1ccccc1)N1CCc2ccccc21", "Potency": "inconclusive: 39.8 µM [inhibitor, single point]"},
      {"smiles": "Cc1cccc(OCCc2noc(C3CCCN3C(=O)Nc3ccccc3)n2)c1", "note": "(configuration not stated)", "activity change, negative = inhibition": "inactive: 15.9%"},
      {"smiles": "O=C(Cc1ccc2c(c1)OCO2)N(Cc1ccncc1)Cc1cccc(OCCc2ccc(F)cc2)c1", "Potency": "inconclusive: 39.8 µM [inhibitor, single point]"},
      {"smiles": "CN(C)C[C@@H]1CN(c2ccncn2)C[C@H]1NC(=O)c1cccc2[nH]ccc12", "activity change, negative = inhibition": "inactive: -8.58%"},
      {"smiles": "C=CCNC1=C2C[C@@H](C)C[C@H](OC)[C@@H](O)[C@@H](C)C=C(C)[C@H](OC(N)=O)[C@@H](OC)C=CC=C(C)C(=O)NC(=CC1=O)C2=O", "Potency": "inconclusive: 0.482 µM [inhibitor, full curve]"},
      {"smiles": "N#Cc1ccc(C(=O)N[C@@H](Cc2ccccc2)C(=O)N2CCCOCCNC(=O)CC2)cc1", "Potency": "inconclusive: 4.47 µM [inhibitor, single point]"},
      {"smiles": "COc1cccc(CN2CCC(Cc3ncc(C)n3Cc3ccccc3)C2)c1", "note": "(configuration not stated)", "Potency": "inconclusive: 25.1 µM [inhibitor, single point]"},
      {"smiles": "COc1cccc(Nc2ncc(-c3cccnc3)c3c2OCC3)c1", "activity change, negative = inhibition": "inactive: 172% [at 87.6 µM]"},
      {"smiles": "COc1cccc(CNC(=O)CN2C(=O)NC(c3ccc(C)cc3)C3=C2COC3=O)c1OC", "note": "(configuration not stated)", "Potency": "inconclusive: 10 µM [inhibitor, partial curve, poor fit]"},
      {"smiles": "COc1ccc(NC(=O)CSc2nc(-c3ccc(F)cc3)[nH]c2-c2ccc(C)cc2)cc1OC", "Potency": "inconclusive: 28.2 µM [inhibitor, single point]"},
      {"smiles": "CNc1ccc(-c2noc([C@@H]3CCCN3Cc3ccccn3)n2)cn1", "activity change, negative = inhibition": "inactive: 25.5% [at 87.6 µM]"},
      {"smiles": "O=C(c1ccnnc1)N1CC(F)(F)C[C@H]1c1nc(-c2ccccc2)no1", "activity change, negative = inhibition": "inactive: 25.9%"},
      {"smiles": "COCC(=O)NC[C@H]1CCN(S(C)(=O)=O)C[C@H]1N(C)C", "Potency": "inconclusive: 39.8 µM [inhibitor, single point]"},
      {"smiles": "CCOCC(=O)N1CCC(N2C(=O)C(O)C23CCCCC3)CC1", "note": "(configuration not stated)", "Potency": "inconclusive: 15.8 µM [inhibitor, partial curve]"},
      {"smiles": "COc1ccc(CCN2C(=O)c3[nH]nc(-c4ccccc4O)c3C2c2ccc(OC)cc2)cc1", "note": "(configuration not stated)", "Potency": "inconclusive: 14.1 µM [inhibitor, partial curve, poor fit]"},
      {"smiles": "Cc1ccccc1Nc1c(-c2ccc(N3CCOCC3)cc2)nc2ccccn12", "Potency": "inconclusive: 39.8 µM [inhibitor, single point]"},
      {"smiles": "CCc1ccccc1OCC(=O)c1ccc2c(c1)N(CC(=O)Nc1ccc(F)cc1)C(=O)CO2", "Potency": "inconclusive: 12.6 µM [inhibitor, partial curve, poor fit]"},
      {"smiles": "COc1ccc(C(=O)N2CCC3(CC2)OC(=O)N(Cc2ccc(O)cc2)C3(C)c2ccccc2)cn1", "note": "(configuration not stated)", "activity change, negative = inhibition": "inactive: 3.18%"},
      {"smiles": "CCCc1ccc2oc(C(=O)NCCc3nncn3CC)c(C)c2c1", "activity change, negative = inhibition": "inactive: 122%"},
      {"smiles": "COc1ccccc1CNC(=O)CCC1N=C2c3ccccc3N=C(SCc3ccc(C)cc3C)N2C1=O", "note": "(configuration not stated)", "Potency": "inconclusive: 0.631 µM [inhibitor, full curve, poor fit]"},
      {"smiles": "Cc1cnc(CCNC(=O)CCc2nc3ccccc3s2)n1C1CC1", "activity change, negative = inhibition": "inactive: 18.6%"},
      {"smiles": "CCCc1sc(NC(=O)C[C@H]2NC(=O)c3ccccc3NC2=O)nc1C(=O)OC", "Potency": "inconclusive: 39.8 µM [inhibitor, partial curve, poor fit]"},
      {"smiles": "COc1ccc(-c2ccnc(N[C@H]3CO[C@H]4[C@@H]3OC[C@@H]4NC(=O)CCC(=O)O)n2)cc1", "activity change, negative = inhibition": "inactive: 1.15% [at 87.6 µM]"},
      {"smiles": "CN(C)c1ccc(C(=O)NC2CCCN(c3cc(-c4ccccc4)[nH]n3)C2)cc1", "note": "(configuration not stated)", "activity change, negative = inhibition": "inactive: 28.7%"},
      {"smiles": "CC(=O)N1C[C@@H]2CCCN3CCC[C@@H]([C@H]23)[C@H]1CCCC(=O)N(C)Cc1ccc(N2CCOCC2)cc1", "Potency": "inconclusive: 8.91 µM [inhibitor, single point]"},
      {"smiles": "CC(C)CN1CCN(C(=O)C2CCCN(S(=O)(=O)c3cn(C)cn3)CCC(=O)NCC2)CC1", "note": "(configuration not stated)", "activity change, negative = inhibition": "inactive: -17%"},
      {"smiles": "Cc1ccc(C(=O)NC2=NC(c3ccc(C)cc3)CC(=O)N2)cc1", "note": "(configuration not stated)", "activity change, negative = inhibition": "inactive: -1.81%"},
      {"smiles": "COc1ccccc1N1CCN(C(=O)CCc2ccccc2C)CC1=O", "activity change, negative = inhibition": "inactive: 12.5%"},
      {"smiles": "COC1=C2C[C@@H](C)C[C@H](OC)[C@@H](O)[C@@H](C)C=C(C)[C@H](OC(N)=O)[C@@H](OC)C=CC=C(C)C(=O)NC(=CC1=O)C2=O", "Potency": "inconclusive: 17.1 µM [inhibitor, partial curve, poor fit]"},
      {"smiles": "COc1ccccc1-c1cc(C(=O)NCc2ccnc(N)c2)c2c(c1)ncn2C", "Potency": "inconclusive: 1.12 µM [inhibitor, full curve, poor fit]"},
      {"smiles": "Cc1noc(C)c1S(=O)(=O)N1CC(c2nc(Cc3cccnc3)no2)C1", "Potency": "inconclusive: 5.01 µM [inhibitor, partial curve]"},
      {"smiles": "CCC(C(=O)Nc1cccc(C#N)c1)n1c(=O)c(-c2ccccc2NC(C)=O)nc2ccccc21", "note": "(configuration not stated)", "Potency": "inconclusive: 15.8 µM [inhibitor, partial curve, poor fit]"},
      {"smiles": "O=C(CSc1oc(-c2ccco2)nc1S(=O)(=O)c1ccc(Cl)cc1)c1ccc(Cl)cc1", "Potency": "inconclusive: 1 µM [inhibitor, full curve, poor fit]"},
      {"smiles": "CNC(=O)c1ccc(C)c(-n2c(C)cc(OCc3ccc(F)cc3F)c(Br)c2=O)c1", "Potency": "inconclusive: 48.2 µM [inhibitor, single point]"},
      {"smiles": "COc1ccc(CNC(=O)CC2N=C3c4ccccc4N=C(SCC(=O)Nc4ccc(N(C)C)cc4)N3C2=O)cc1", "note": "(configuration not stated)", "Potency": "inconclusive: 3.16 µM [inhibitor, partial curve, poor fit]"},
      {"smiles": "Cc1ccc(CN2c3ccccc3S(=O)(=O)c3ccccc32)cc1", "Potency": "inconclusive: 2 µM [inhibitor, partial curve, poor fit]"},
      {"smiles": "CCCN(CCC)CCNC(=O)c1cc2c(-c3ccccc3F)nn(C)c2s1", "Potency": "inconclusive: 7.08 µM [inhibitor, single point]"},
      {"smiles": "O=C(c1n[nH]c2ccccc12)N1CCC(c2nc(CCOCC3CC3)no2)C1", "note": "(configuration not stated)", "activity change, negative = inhibition": "inactive: 66.4%"},
      {"smiles": "COc1ccc(-n2c(=O)c(C(=O)N3CCC(c4ccccc4)CC3)nc3cccnc32)cc1", "activity change, negative = inhibition": "inactive: -22.3%"},
      {"smiles": "O=C(Cc1c[nH]c2ncc(-c3ccccc3)cc12)Nc1ccc(N2CCOCC2)cc1", "Potency": "inconclusive: 3.16 µM [inhibitor, partial curve, poor fit]"},
      {"smiles": "CCc1c(C)sc2c1CCN(Cc1ccc(F)cc1)C2c1ccccc1", "note": "(configuration not stated)", "Potency": "inconclusive: 11.2 µM [inhibitor, partial curve, poor fit]"},
      {"smiles": "CCCCNC(=O)CCCn1c(=O)c2ccccc2n(Cc2ccccc2C)c1=O", "Potency": "inconclusive: 3.98 µM [inhibitor, partial curve, poor fit]"},
      {"smiles": "Cn1cccc1C(=O)N1CCC(N2C[C@H](O)C[C@H]2C(=O)NC2CCCCC2)CC1", "activity change, negative = inhibition": "inactive: 2.57%"},
      {"smiles": "COc1ccc(NC(=O)c2cc3c(N4CCSCC4)nc(C)cn3n2)c(OC)c1", "activity change, negative = inhibition": "inactive: 6.55%"},
      {"smiles": "CCn1nccc1C(=O)N1CCN(Cc2ccc(=O)n(C)c2)CC1", "Potency": "inconclusive: 3.98 µM [inhibitor, partial curve, poor fit]"},
      {"smiles": "Cc1ccc([S+](=O)([O-])N2CCC3(CC2)CC(=O)N(c2ccccc2)c2ccccc2O3)cc1", "Potency": "inconclusive: 39.8 µM [inhibitor, partial curve, poor fit]"}
    ]}
  ]
}
